The campaign covered roughly 48,000 compounds. About 550 (1.1%) were called active. Another 4% or so got no clear call; they are omitted. Cut-off read from the data, not from the text of the source: active = potency below about 15 µM; inconclusive = mostly about 16 µM to 33 µM; inactive = weaker than that. Some of the results follow.
Potency is the fitted concentration of half-maximal effect.

Chain of UniProt P04062 (P04062 whole entry, looked up): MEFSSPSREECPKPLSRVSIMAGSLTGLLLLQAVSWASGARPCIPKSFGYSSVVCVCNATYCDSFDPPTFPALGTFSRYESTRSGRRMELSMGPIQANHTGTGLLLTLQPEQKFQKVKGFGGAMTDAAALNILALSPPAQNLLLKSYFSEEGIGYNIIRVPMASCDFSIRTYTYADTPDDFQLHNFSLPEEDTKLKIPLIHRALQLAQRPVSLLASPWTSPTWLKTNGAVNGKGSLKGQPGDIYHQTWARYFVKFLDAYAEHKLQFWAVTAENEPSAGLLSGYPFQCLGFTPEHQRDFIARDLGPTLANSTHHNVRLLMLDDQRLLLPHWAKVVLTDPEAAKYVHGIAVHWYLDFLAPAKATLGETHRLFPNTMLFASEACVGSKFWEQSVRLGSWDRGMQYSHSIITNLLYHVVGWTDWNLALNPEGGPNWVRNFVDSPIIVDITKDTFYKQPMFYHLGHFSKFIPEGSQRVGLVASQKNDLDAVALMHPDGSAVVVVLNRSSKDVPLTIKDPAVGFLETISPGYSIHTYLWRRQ

The target in the assay is Lysosomal acid glucosylceramidase (Homo sapiens) (UniProt P04062). The assay can be described thus: Glucocerebrosidase.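 Note: the screen sought inhibitors.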 Conditions: purified enzyme, resorufin glucoside fluorescence (screen aimed at inhibitors), 20 min; series mostly up to 77 µM. The gist of the method:
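Compounds titrated against 0.2 nM normal enzyme, 30 uM resorufin beta-D-glucopyranoside substrate, citrate/phosphate buffer with taurocholate and tween-20, pH 5.9. Reaction ran 20 min at room temperature; fluorescence (Ex 548/Em 600) gave AC50.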
As to `CCS(=O)(=O)Nc1ccc(-c2nnc(SCC(=O)c3cccc(OC)c3)o2)cc1`, the Potency was active: 10.7 µM. For `COc1ccc(C(=O)O)cc1S(=O)(=O)N(C)CCc1cccnc1` the value was inactive: > 76.9 µM; for `O=C(NCC1CCCO1)C1CCN(C(=O)c2ccc(Cl)cc2)CC1` (stereo unspecified), inactive: > 76.9 µM. `CCC1CCCCN1C(=O)c1cc(-c2ccc(Cl)c(Cl)c2)on1` (stereo unspecified): the Potency was inactive: > 76.9 µM. For `O=C(COC(=O)CCC(=O)c1ccc(Cl)cc1)NCC1CCCO1` (stereo unspecified) the value was inactive: > 76.9 µM; for `Nc1ccc(NC(=O)c2cccs2)c(Cl)c1`, inactive: > 76.9 µM; for `Cc1nnc(Sc2nc3ccccc3o2)c2ccccc12`, inactive: > 76.9 µM. Under `CC(C)N(CCNC(=O)C1CCN(S(=O)(=O)N2CCOCC2)CC1)Cc1ccccc1` stands inactive: > 76.9 µM; under `CCSc1ncnc2c1oc1ccccc12`, inactive: > 76.9 µM. For `O=C(COC(=O)c1ccncc1)NCc1ccccc1` the value was inactive: > 76.9 µM; for `Cc1nc(N2CCCC2)c2ccsc2n1`, inactive: > 76.9 µM; for `Cc1nc2ccc(N)cc2c(=O)n1Cc1ccc(Cl)cc1`, inactive: > 76.9 µM.

As to `CCOC(=O)C1CCCN(C(=O)C2CCC(CNS(=O)(=O)c3ccc(NC(C)=O)cc3)CC2)C1` (stereo unspecified), the Potency was inactive: > 76.9 µM. For `COC(=O)c1cc(OC)c(OC)cc1NC(=O)C1CCC(=O)N1S(=O)(=O)c1ccc(C)cc1` (stereo unspecified) the value was inactive: > 76.9 µM; for `CN1C(=O)CSc2ccc(NC(=O)NCc3ccco3)cc21`, inactive: > 76.9 µM; for `CCc1nc(NCc2ccccn2)c2oc3ccccc3c2n1`, inactive: > 76.9 µM. For `CCNC(=O)CC1SC(=Nc2ccccc2C)N(C)C1=O` (stereo unspecified) the value was inactive: > 76.9 µM. For `CCOc1ccc(OCCN2C(=O)NC3(CCCc4ccccc43)C2=O)cc1` (stereo unspecified) the value was “inactive”; for `CCCCn1cnc2c(cnn2-c2ccc(Cl)cc2)c1=O`, inactive: > 76.9 µM. For the molecule `O=C(CSCc1ccccn1)Nc1ccccc1`, the Potency is inactive: > 76.9 µM.

Take `CC(Oc1ccc2c(-c3ccccc3)cc(=O)oc2c1)C(=O)O` (stereo unspecified): the Potency is inactive: > 76.9 µM. Under `O=C(Nc1cccc(Cl)c1N1CCCCC1)c1ccc2c(c1)OCCO2` stands inactive: > 76.9 µM; under `O=S1(=O)CC(O)C(NCc2cccnc2)C1` (stereo unspecified), inactive: > 76.9 µM. Under `Cc1ccc(C(=O)N2CCN(c3ccccc3)CC2)cc1S(=O)(=O)N1CCCC1` stands inactive: > 76.9 µM; under `CCn1c(SCc2cc(=O)[nH]c3ccccc23)nc2c1c(=O)n(C)c(=O)n2C`, inactive: > 76.9 µM; under `Cc1ccc(Nc2nc(N)nc(CSc3nccn3C)n2)cc1`, inactive: > 76.9 µM.

`COc1ccc(C(CNC(=O)Cn2[nH]c(=O)c3ccccc3c2=O)N2CCCC2)cc1` (stereo unspecified): the Potency is inactive: > 76.9 µM. Under `O=C(Oc1cccc(-n2cnnn2)c1)C1CCCCC1` stands inactive: > 76.9 µM. For `COc1cc(NC(=O)c2noc3c2CCCC3)c(OC)cc1Cl` the value was inactive: > 76.9 µM. For `O=C(OCN1C(=O)c2ccccc2C1=O)c1ccccc1` the value was inactive: > 76.9 µM; for `O=C(COc1ccc(Cl)cc1Cl)N(Cc1ccco1)C1CCS(=O)(=O)C1` (stereo unspecified), inactive: > 76.9 µM. `CCCCNC(=O)CCCn1c(=O)c2ccccc2n(CC(=O)NCCC2=CCCCC2)c1=O`: the Potency was inactive: > 76.9 µM.

For the molecule `Cc1ccc(/C(C#N)=C\c2cn(C)c3ccccc23)cc1`, the Potency is inactive: > 76.9 µM. Under `CCCCn1c(SCC(=O)N2CCN(c3ccccc3)CC2)nc2ccsc2c1=O` stands inactive: > 76.9 µM; under `CC(C)NC(=O)c1c(O)c2ccccc2[nH]c1=O`, inactive: > 76.9 µM. Take `COc1ccc(OCc2cccc(C(=O)N3CCCC3)c2)cc1`: the Potency was inactive: > 76.9 µM. For `CCn1c2ccccc2c2nnc(SCC(=O)NC(C(=O)OC)C(C)C)nc21` (stereo unspecified) the value was inactive: > 76.9 µM; for `Cc1ccc(-n2c(SCC(=O)Nc3ccc4c(c3)OCCO4)nnc2-c2ccco2)cc1`, inactive: > 76.9 µM. Under `O=C(C1CC2CCC1C2)N1CCN(Cc2ccc3c(c2)OCO3)CC1` (stereo unspecified) stands inactive: > 76.9 µM. Under `COC(=O)c1[nH]c2c(c1C)C(=O)CC(c1ccccc1)C2` (stereo unspecified) stands inactive: > 76.9 µM; under `Cc1cc2oc(=O)c3c(c2cc1OCc1nn[nH]n1)CCCC3`, inactive: > 76.9 µM.

Regarding `Cc1c(C2OC(=O)C3(CCCCC3)C(=O)C2(C)C)c(=O)n(-c2ccccc2)n1C` (stereo unspecified), the Potency was inactive: > 76.9 µM. For `COc1ccc(N(C)C(=O)Nc2ccc3c(c2)nnn3C)cc1` the value was inactive: > 76.9 µM. Under `CCOC(=O)c1ccc(N2C(=O)C(O)=C(C(C)=O)C2c2ccccn2)cc1` (stereo unspecified) stands inactive: > 76.9 µM; under `CC(C)(C)NC(=O)CSc1n[nH]c(=O)n1-c1ccccc1`, inactive: > 76.9 µM. For `Cc1cc(=O)n2nc(-c3ccccc3)sc2n1` the value was inactive: > 76.9 µM; for `OC(CNCC1COc2ccccc2O1)COCc1cccs1` (stereo unspecified), inactive: > 76.9 µM; for `Cc1nnc(C)n1/N=C/c1cccc(Oc2ccccc2)c1`, inactive: > 76.9 µM. Consider `CC(C)CC(NC(N)=O)C(=O)OCC(=O)NC(=O)NC1CCCC1` (stereo unspecified), for which the Potency was inactive: > 76.9 µM. Under `COC(=O)Nc1ccc2c(c1)N(C(=O)CCN1CCOCC1)c1ccccc1S2` stands “inactive”; under `CN(C)c1ccc(-c2noc(C3CCN(S(=O)(=O)c4ccc(C(=O)O)cc4)CC3)n2)cc1`, inactive: > 76.9 µM; under `Cc1ccc2nc(NC(=O)CN3CCOCC3)sc2c1`, inactive: > 76.9 µM.

As for `CN(C)c1ccc(C(=S)N2CCN(c3ccccc3)CC2)cc1`, the Potency is inactive: > 76.9 µM. For the molecule `COc1ccc(C(=O)N(Cc2ccc(N(C)C)cc2)C2CCS(=O)(=O)C2)cc1` (stereo unspecified), the Potency is inactive: > 76.9 µM. Regarding `COc1ccc(CC2NCCC3(O)CCCCC23)cc1` (stereo unspecified), the Potency was inactive: > 76.9 µM. With `O=C(O)c1cccc(COCC(F)(F)C(F)F)c1`, the Potency was inactive: > 76.9 µM.

Turning to `COC(=O)C1=C(CSc2nnnn2C)NC(=O)NC1c1cc(C)ccc1C` (stereo unspecified), the Potency was inactive: > 76.9 µM. For `Cc1ccc(CCN2CC(C(=O)NCCCN(C)Cc3ccccc3)CC2=O)cc1` (stereo unspecified) the value was inactive: > 76.9 µM. For `CC(C)(C)c1ccc(OCC(=O)NC2CCS(=O)(=O)C2)cc1` (stereo unspecified) the value was inactive: > 76.9 µM. For `O=C(O)C1CCCN1C(=O)Nc1ccccc1` (stereo unspecified) the value was inactive: > 76.9 µM; for `c1ccc(OCCSc2nnc3sc4ccccc4n23)cc1`, inactive: > 76.9 µM; for `Cc1ccc2[nH]c(=O)c(CN(CCc3ccccc3)Cc3nnnn3CC3CCCO3)cc2c1` (stereo unspecified), inactive: > 76.9 µM. Consider `Cc1cc(NC(=O)CSc2nnc(CNc3ccc(F)cc3)n2C2CCCCC2)no1`, for which the Potency was inactive: > 76.9 µM. Under `COc1cc(OC)c(NC2=NCCCCC2)cc1Cl` stands inactive: > 76.9 µM. For `Cc1nc(NC(=O)CSc2nnnn2Cc2ccccc2)sc1C` the value was inactive: > 76.9 µM. Under `COc1cccc(N2C(=O)N(c3ccccc3Cl)C3CS(=O)(=O)CC32)c1` (stereo unspecified) stands inactive: > 76.9 µM; under `CCOC(=O)N1CCN(S(=O)(=O)c2ccc3c(c2)CCN3C(=O)CC)CC1`, inactive: > 76.9 µM; under `COCCN(C(=O)C1CC1)c1nnc(-c2cccc(C)c2)s1`, inactive: > 76.9 µM.

In the case of `COC(=O)CS(=O)(=O)c1cc(Br)cc2c1N(C(C)=O)CC2`, the Potency is inactive: > 76.9 µM.

Turning to `CCOC(=O)c1cc2cc(-c3c(C(=O)OCC)oc4cc(O)cc(O)c4c3=O)ccc2o1`, the Potency is inactive: > 76.9 µM. For `CCOC(=O)C1CCCN(CC(=O)Nc2c(F)c(F)c(F)c(F)c2F)C1` (stereo unspecified) the value was inactive: > 76.9 µM. For `CCc1ccc2[nH]c(=O)c(C(c3nnnn3Cc3ccccc3)N3CCOCC3)cc2c1` (stereo unspecified) the value was inactive: > 76.9 µM.

For the molecule `O=C(Nc1ccc2c(c1)OCO2)N1CCN(c2cccc(C(F)(F)F)c2)CC1`, the Potency is inactive: > 76.9 µM. With `C=CCn1c(COc2ccc(CC)cc2)nnc1SCC(=O)N(C)C1CCS(=O)(=O)C1` (stereo unspecified), the Potency is inactive: > 76.9 µM. As to `COC(=O)CCC(=O)Nc1ccc(Cl)c(Cl)c1`, the Potency is inactive: > 76.9 µM.

As to `COc1cc(C2NC(=O)c3ccccc3O2)cc(OC)c1OC` (stereo unspecified), the Potency was inactive: > 76.9 µM. For `Cc1cc(=O)cc(C)[nH]1` the value was inactive: > 76.9 µM; for `Cc1ccc(Cl)cc1NC(=O)CSc1nnc(C)n1-c1ccccc1`, inactive: > 76.9 µM. For `COC(=O)c1[nH]c2ccccc2c1NC(=O)CCN1CCN(C2CCCCC2)CC1` the value was inactive: > 76.9 µM; for `O=C(Nc1cccc(O)c1)c1cccc(S(=O)(=O)N2CCCC2)c1`, inactive: > 76.9 µM. Under `O=C(CSc1ccc2nnc(-c3cccc(F)c3)n2n1)NCC1CCCO1` (stereo unspecified) stands inactive: > 76.9 µM. Consider `CCOC(=O)c1cc(CN2CCOCC2)oc1-c1ccccc1`, for which the Potency was inactive: > 76.9 µM. Under `COc1ccc(O)c(C(=O)c2cnn(C(=O)c3cc(C)oc3C)c2)c1` stands inactive: > 76.9 µM; under `C=CCSc1nnc(NC(=O)c2cccc(S(=O)(=O)N3CCOCC3)c2)s1`, inactive: > 76.9 µM; under `CC(=O)c1c(COC(=O)c2ccncc2)nc2ccccc2[n+]1[O-]`, inactive: > 76.9 µM. Under `COc1ccc(N2CCn3c2nc2c3c(=O)n(CCCc3ccccc3)c(=O)n2C)cc1` stands inactive: > 76.9 µM; under `Cn1c(SCC(=O)NC2CCCC2)nnc1-c1ccc(S(=O)(=O)N2CCOCC2)cc1`, inactive: > 76.9 µM. Under `O=C(OCN1C(=O)c2ccccc2C1=O)c1ccc2c(=O)n3c(nc2c1)CCC3` stands inactive: > 76.9 µM. As for `CCOc1ccccc1N/C=C/C(=O)C(C)(C)C`, the Potency was inactive: > 76.9 µM. Under `Cc1cc(NCCCN2CCOCC2)n2ncc(-c3ccccc3)c2n1` stands “inactive”. As for `Cc1[nH]n2c(=O)c3c(nc2c1-c1ccccc1)CCC3`, the Potency is active: 9.49 µM.

(Values after PubChem BioAssay AID360 (National Center for Advancing Translational Sciences (NCATS), 2006).)
